# Measurements: PubChem BioAssay AID1347073 (National Center for Advancing Translational Sciences (NCATS), 2019)
# About 200 (0.44%) of roughly 45,000 compounds were called active. Inconclusive results (about 7%) are left out. Calls follow the shape of the dose curve; as a rule, active = well fitted activation curve with a large enough effect; inconclusive = small, poorly fitted or top-dose-only effect; inactive = no such curve, though single readings can be large or run the other way. The list shows a part of the results.
# Experiment: qHTS of TDP-43 Inhibitors: NCGC Sytravon Library Screen; also: 0% is about no effect; nearly all actives have a fitted effect of over 55% in size
# Details: yeast TDP-43 toxicity rescue, BacTiter-Glo growth, 24 h; series mostly up to 46.1 µM; growth rescue (activation): at the top concentration
# Outline: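 TDP-43-expressing yeast, pregrown in raffinose, seeded at OD600 0.02 in galactose medium with compound for 24 hr at 30 deg C. Growth read by BacTiter-Glo luminescence, so rescue of toxicity appears as activation.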
row,SMILES,growth rescue (activation)
1,CC1(C(=O)Nc2cnc3ccccc3c2)CCN1C(=O)C/C=C/c1ccccc1 (stereo not drawn),inactive: 23.5%
2,CCCN(CCC)CCCNC(=O)Cn1cnc2sc(C)c(S(=O)(=O)N3CCCCC3)c2c1=O,inactive: -19.7%
3,O=C(/C=C/c1ccc(Cl)cc1Cl)Nc1cccc(S(=O)(=O)NC2=NCCC2)c1,inactive: -2.48%
4,O=[N+]([O-])c1ccc(P(=O)(Cc2ccccc2)c2ccccc2O)cc1 (stereo not drawn),inactive: 1.4%
5,O=c1oc2ccccc2c2oc3cc(O)c(O)cc3c12,inactive: -9.35%
6,Cc1cc(C)c(/C([O-])=C(/C(=S)Nc2ccc(SC(F)F)cc2)[n+]2ccccc2)cc1C,inactive: 6.08%
7,O=C(N/N=C/c1c[nH]c2ccccc12)c1cccc([N+](=O)[O-])c1,inactive: 14.3%
8,O=C(O)c1ccc(Sc2nnc3ccccn23)c([N+](=O)[O-])c1,inactive: 6.38%
9,Cc1cc(OC(C)C(=O)Nc2ccccc2C(=O)N2CCCC2)ccc1Cl (stereo not drawn),inactive: 19.3%
10,CCCCNC(=O)CCCCn1c(=S)[nH]c2c([nH]c3ccc(OC)cc32)c1=O,inactive: -3.52%
11,COc1ccc(C2=NC3(CCCCC3)N(CC(=O)Nc3ccc(C(C)C)cc3)C2=O)cc1,inactive: 11.5%
12,COc1cc2c(cc1OC)CN(C(=O)CSc1nnc(C)s1)CC2,inactive: 13.8%
13,CCOC(=O)C1=C(N)Oc2cc(O)ccc2C1c1ccc([N+](=O)[O-])cc1 (stereo not drawn),inactive: -2.16%
14,CCN(CC)CC(=O)Nc1c(C)cc(C(C)(C)C)cc1C,inactive: 7.37%
15,Cc1nn(-c2ccccc2)c(N2CCCC2)c1/C=N/NC(=O)c1cc(-c2ccccn2)nc2ccccc12,inactive: 9.1%
16,COc1ccc(N(CC(O)Cn2cnc3ccccc32)S(=O)(=O)c2ccc(C)cc2)cc1 (stereo not drawn),inactive: 12.6%
17,NC(=O)c1nsc(C(=O)N(c2ccc3c(c2)OCCO3)C(C(=O)NCC2CCCO2)c2ccc(F)cc2)c1N (stereo not drawn),inactive: 4.22%
18,CC(C)(C)NS(=O)(=O)c1ccc(C(=O)Nc2ccc3c(c2)OCO3)cc1,inactive: 11.8%
19,O=C(COC(=O)c1c(F)cccc1F)NCc1cccs1,inactive: 4.19%
20,CCCCOc1ccc(/C=C/C(=O)NC2=Nc3ccccc3NC(C)=C2C(=O)OCC)cc1OC,inactive: 15.9%
21,O=S(=O)(Nc1ccccn1)c1ccc(Cl)c2ccccc12,inactive: 1.69%
22,CN(Cc1ccccc1)C(=O)CN1C(=O)c2ccccc2S1(=O)=O,inactive: 18.5%
23,O=C(O)CC(SCC(=O)Nc1ccc(Br)cc1)C(=O)O (stereo not drawn),inactive: -2.81%
24,COc1cccc(N=CC2=C(O)CC(C)(C)CC2=O)c1,inactive: 28.6%
25,Cc1cc(=O)oc2cc(NC(=O)C3CCCC3)ccc12,inactive: 10.2%
26,CN(CCO)C(=O)c1c(NC(=O)c2ccccc2)sc2c1CCCC2,inactive: -2.06%
27,Cc1ccc(S(=O)(=O)N(CC(=O)NCc2ccco2)c2ccccc2C)cc1,inactive: 21.3%
28,CN(C(=O)COC(=O)c1ccc(Cl)c(N)c1)c1ccccc1,inactive: -8.7%
